Data as given in PubChem BioAssay AID360 (National Center for Advancing Translational Sciences (NCATS), 2006).
Out of some 48,000 compounds screened, about 550 (1.1%) were called active. Roughly 4% stayed inconclusive and do not appear here. Rule as the data show it: active = potency below about 15 µM; inconclusive = mostly about 16 µM to 33 µM; inactive = weaker than that. This is one part of the list.

Biological target: Lysosomal acid glucosylceramidase (Homo sapiens) (UniProt P04062)
Assay: Glucocerebrosidase;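 also: the screen sought inhibitors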
Details: purified enzyme, resorufin glucoside fluorescence (screen aimed at inhibitors), 20 min
Procedure, shortened: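 Compounds titrated against 0.2 nM normal enzyme, 30 uM resorufin beta-D-glucopyranoside substrate, citrate/phosphate buffer with taurocholate and tween-20, pH 5.9. Reaction ran 20 min at room temperature; fluorescence (Ex 548/Em 600) gave AC50.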
Potency is read from the fitted curve at half-maximal effect.

Sequence of UniProt P04062 (P04062 whole entry, looked up): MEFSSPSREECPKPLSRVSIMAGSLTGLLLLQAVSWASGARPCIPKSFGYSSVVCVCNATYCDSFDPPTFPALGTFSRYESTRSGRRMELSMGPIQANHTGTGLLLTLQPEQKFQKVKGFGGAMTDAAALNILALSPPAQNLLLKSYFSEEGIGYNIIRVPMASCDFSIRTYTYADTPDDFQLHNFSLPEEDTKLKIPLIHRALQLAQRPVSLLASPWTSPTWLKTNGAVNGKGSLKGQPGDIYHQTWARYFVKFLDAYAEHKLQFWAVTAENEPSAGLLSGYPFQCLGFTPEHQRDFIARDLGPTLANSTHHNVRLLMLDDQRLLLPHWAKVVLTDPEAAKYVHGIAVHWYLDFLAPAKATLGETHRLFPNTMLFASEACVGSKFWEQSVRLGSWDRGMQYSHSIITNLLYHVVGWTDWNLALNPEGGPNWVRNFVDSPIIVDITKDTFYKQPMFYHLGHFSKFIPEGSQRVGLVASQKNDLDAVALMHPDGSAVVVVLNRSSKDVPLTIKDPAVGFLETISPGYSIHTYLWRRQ

Potency, active:
COc1cccc(N2CCN(Cc3nc(N)nc(N4CCCc5ccccc54)n3)CC2)c1 10.9 µM

Potency, inactive:
Cc1ccc(-n2c(=O)[nH]c3c(C(N)=O)nc(CC(C)C)nc32)cc1 > 76.9 µM, Cc1cccc(NC(=O)COc2ccccc2)c1 > 76.9 µM, CCOC(=O)c1[nH]c2ccc(OC)cc2c1NC(=O)C(C)N1CCSCC1 (stereo not given) > 76.9 µM, O=C(CN1C(=O)c2ccccc2S1(=O)=O)N1CCN(Cc2ccc3c(c2)OCO3)CC1 > 76.9 µM, CCc1c(C)sc(NC(=O)c2ccco2)c1C(=O)N1CCCCC1 > 76.9 µM, CCCN(Cc1cc2ccc(C)cc2[nH]c1=O)C(=O)c1ccccn1 > 76.9 µM, Cc1cc(=O)oc(C)c1C(=O)N1CCN(C(c2ccccc2)c2ccccc2)CC1 > 76.9 µM, O=S1(=O)CCC(NCC2CCCO2)C1 (stereo not given) > 76.9 µM, COc1ccc(S(=O)(=O)NCCC(=O)NC2CCCCCCC2)cc1 > 76.9 µM, COC(=O)CSc1nnc(CCc2nc3ccccc3[nH]2)n1C > 76.9 µM, COc1ccc(OCCSc2nnnn2C2CCCCC2)cc1 > 76.9 µM, CCOc1ccc(N2C(=O)CCC2=O)cc1 > 76.9 µM, CCN(CCCNC(=O)C1CCN(S(=O)(=O)c2cccc3nonc23)CC1)Cc1ccccc1 > 76.9 µM, COc1ccccc1OCC(O)Cn1c(=N)n(CCN2CCCCC2)c2ccccc21 (stereo not given) > 76.9 µM, COc1ccc(Cc2nc(-c3ccccc3)no2)cc1 > 76.9 µM, CCN(CC)S(=O)(=O)c1cccc(C(=O)Nc2ccc(C#N)cc2)c1 > 76.9 µM, Cc1cc(NC(=O)c2ccccc2)ncc1NC(=O)c1ccco1 > 76.9 µM, COc1ccc(C2C(C(=O)NC(C)C)c3ccccc3C(=O)N2C)cc1OC (stereo not given) > 76.9 µM, COc1cc(NC(=O)CCc2ccccc2)nc(OC)n1 > 76.9 µM, O=C(C1CCN(S(=O)(=O)N2CCC3(CC2)OCCO3)CC1)N1CCN(Cc2ccccc2)CC1 > 76.9 µM, Cc1ccccc1OCC(=O)Nc1cccc(N(C)S(C)(=O)=O)c1 > 76.9 µM, CCCn1c(SCC(=O)NCc2ccco2)nnc1C(C)C > 76.9 µM, CCOC(=O)N1CCN(c2nc(C)c3c(n2)CC(C)CC3=O)CC1 (stereo not given) > 76.9 µM, CC1CCN(C(=O)c2scc3c2OCCO3)CC1 > 76.9 µM, Cc1nc2oc3ccccc3c(=O)c2c(=O)n1Cc1ccccc1 > 76.9 µM, COCCNC(=O)C(c1ccc(C)o1)N(Cc1ccccc1)C(=O)Cn1nnc2ccccc21 (stereo not given) > 76.9 µM, CN1CC(=O)N(C)c2nc(Br)n(C)c2C1=O > 76.9 µM, CC1CCCN(Cc2nc3c(c(=O)n(C)c(=O)n3C)n2CCc2ccccc2)C1 (stereo not given) > 76.9 µM, COc1ccccc1NC(=O)Cn1nnc(C(=O)Nc2ccccc2)c1N > 76.9 µM, CC1CC(C)CN(CCCn2c(=S)[nH]c3ccccc3c2=O)C1 (stereo not given) > 76.9 µM, O=C(CSc1nnc(-c2ccc(Br)cc2)n1C1CCCCC1)N1CCCC1 > 76.9 µM, Cc1ccc(-c2nnn(CC(=O)N(CC(=O)NCC3CCCO3)c3ccccc3)n2)o1 (stereo not given) > 76.9 µM, CC(C)(C)NC(=O)CSc1nnnn1C(C)(C)C > 76.9 µM, Cc1ccnc(Nc2nc(-c3c(C)nc4sccn34)cs2)c1 > 76.9 µM, CCCN1C2CCCC1CC(NC(=O)c1ccccc1)C2 (stereo not given) > 76.9 µM, COc1ccc(-c2cc(C(=O)NC(C(=O)O)C(C)C)c(C)o2)cc1OC (stereo not given) > 76.9 µM, CC1CCCN(C/C(O)=C(\C#N)c2nc3ccccc3[nH]2)C1 (stereo not given) > 76.9 µM, OCC#CCSc1nnc(-c2ccc(Br)cc2)o1 > 76.9 µM, O=C(NCc1ccc(F)cc1)C1C2C=CC3(CN(Cc4cccnc4)C(=O)C13)O2 (stereo not given) > 76.9 µM, CCOC(=O)C1=C(C)N=C2SC(C)C(=O)N2C1c1ccc(OCC)c(OCC)c1 (stereo not given) > 76.9 µM, COc1ccc(-c2ccc(-c3nnn(CC(C)=O)n3)cc2)cc1 > 76.9 µM, CN1CCN(C(=O)c2ccc(N(Cc3ccccc3Cl)S(C)(=O)=O)cc2)CC1 > 76.9 µM, Cc1nn(C(=O)N2CCCCC2)c(C)c1CN1C(=O)c2ccccc2C1=O > 76.9 µM, CC1(C)CC(=O)C(Sc2nnc(-c3ccc(O)cc3)n2CC2CCCO2)C(=O)C1 (stereo not given) > 76.9 µM, COc1ccc(CNC(=O)C2CSCCS2)cc1 (stereo not given) > 76.9 µM, O=C(NCc1cccs1)C1CCN(S(=O)(=O)c2cccc3nsnc23)CC1 > 76.9 µM, Cc1ccc(S(=O)(=O)CCc2ccccn2)cc1 > 76.9 µM, COc1cc2c(cc1OC)CN(C(=O)NS(=O)(=O)c1ccc(C)cc1)CC2 > 76.9 µM, COc1ccc(Cc2nc3ccc(S(N)(=O)=O)cc3[nH]2)cc1OC > 76.9 µM, COC(=O)c1ccc(CSc2ccccc2C)o1 > 76.9 µM, C=C(C)Cn1c(Sc2nc3ccccc3[nH]2)nc2c1c(=O)[nH]c(=O)n2C > 76.9 µM, COc1ccccc1S(=O)Cc1ccc(C(=O)O)o1 (stereo not given) > 76.9 µM, CCC(=O)N(Cc1ccc(S(N)(=O)=O)cc1)C1CC(=O)N(c2ccc(OC)cc2)C1=O (stereo not given) > 76.9 µM, Cc1ccc(S(=O)(=O)N2CCN(C(=O)c3ccc(OCc4c(C)noc4C)cc3)CC2)cc1 > 76.9 µM, CC(=O)C1=C(C)NC(=O)NC1c1ccccc1 (stereo not given) > 76.9 µM, Cc1ccc(-c2cc(-c3nnc(SCC(=O)N(C)CCC#N)n3N)c3ccccc3n2)cc1 > 76.9 µM, CCOc1ccc2nc(NCCNC(=O)Nc3ccccc3)c(C#N)cc2c1 > 76.9 µM, Cc1noc(C)c1S(=O)(=O)N(CCc1ccccc1)Cc1ccccc1 > 76.9 µM, O=C(CSc1nnc(-c2c[nH]c3ccccc23)o1)N1c2ccccc2CCc2ccccc21, CC(=O)c1cccc(NS(=O)(=O)c2ccc3c(c2)oc(=O)n3C)c1 > 76.9 µM, CC1=C(C#N)c2nc(N)c(C#N)c(C)c2/C1=C\c1ccccc1, O=C(O)C(Cc1cc2ccccc2[nH]1)N1C(=O)C2CC=C(Cl)CC2C1=O (stereo not given) > 76.9 µM, C=CCn1c(C)cc(C(=O)COC(=O)COc2ccccc2C#N)c1C, CC1(C)CC(=O)C2=C(C1)N(Cc1cccnc1)C(=O)C2(NC(=O)C1CC1)C(F)(F)F (stereo not given) > 76.9 µM, O=C1CC(c2ccc(F)c(Br)c2)C2=C(CCCC2=O)N1 (stereo not given) > 76.9 µM, O=C(O)CCSCc1ccccc1F > 76.9 µM, CC(=O)C1C(=O)CC(C)(O)C(C(C)=O)C1c1ccc(N(C)C)cc1 (stereo not given) > 76.9 µM, CC(C)c1ccc(N2C(=O)[C@@H]3Cc4ccccc4CN3C2=O)cc1 > 76.9 µM, Cc1ccc2c(c1)N(CC(=O)NC1CCC(C)CC1)C(=O)CO2 (stereo not given) > 76.9 µM, O=C(CCn1c(=O)[nH]c2ccsc2c1=O)N1CC(=O)N(CCc2ccccc2)C(=O)C1 > 76.9 µM, COc1cccc(-c2cc(C(=O)Nc3cc(OC)c(OC)c(OC)c3)no2)c1 > 76.9 µM, NS(=O)(=O)c1ccc(NC(=O)CCc2ccccc2)cc1 > 76.9 µM, CCNC(=O)NC(=O)C(C)SCc1ccccc1C (stereo not given) > 76.9 µM, CC(NC(=O)c1cc(-c2ccccc2)on1)c1ccccc1 (stereo not given) > 76.9 µM, COc1ccccc1N1CCN(C(=O)c2ccoc2C)CC1 > 76.9 µM, CCn1cc(C(=O)N2CCN(C(=O)c3ccco3)CC2)c2cc(OC)c(OC)cc2c1=O > 76.9 µM, Cn1c(=O)c2c(nc(CN3CCC(C(N)=O)CC3)n2CCc2ccccc2)n(C)c1=O > 76.9 µM, CCOc1cc(-c2conc2N)cc(OCC)c1OCC > 76.9 µM, CCOC(=O)c1c(C)[nH]c(C(=O)Cn2nnc(-c3ccccc3Cl)n2)c1C > 76.9 µM, COCCCN(C(C)=O)c1nc(-c2ccc(OC)cc2)cs1 > 76.9 µM, CCCC1CC(C)(C(=O)Cn2[nH]c(=O)ccc2=O)OC1=O (stereo not given) > 76.9 µM, CC(C)Nc1nc(NC(C)C)nc(N(C)C(N)=O)n1 > 76.9 µM, COC(=O)c1ccccc1NC(=O)c1sc(N)nc1C > 76.9 µM, COc1cccc(-c2nnc(SCC(=O)N3CCCc4ccccc43)o2)c1 > 76.9 µM, O=C(CNC(=O)c1cnccn1)Nc1ccc(F)c(F)c1F > 76.9 µM, CCN1CCN(Cc2ccc(NC(=O)Nc3ccc(SC)cc3)cc2)CC1 > 76.9 µM, Cc1ccsc1C1C(C(=O)O)c2ccccc2C(=O)N1C (stereo not given) > 76.9 µM, CN(CC(=O)N1CCN(c2ccc(F)cc2)CC1)S(=O)(=O)c1ccc(F)cc1 > 76.9 µM, Cn1c(=O)c2c(nc(SCc3nn[nH]n3)n2Cc2ccccc2F)n(C)c1=O > 76.9 µM
